Results on one molecule are retold here after article PMC10320511.

These are yes or no findings as the source states them, for the method shown. In cells and extracts the contact can be indirect. Some binding calls cover weakened binding; strength is not graded here. Tags and fused reporters may be left off the sequences shown.

The target in test [1] is T1, FRQ Δ604–646, V5H6-tagged (Neurospora crassa) (UniProt P19970).
T1 sequence: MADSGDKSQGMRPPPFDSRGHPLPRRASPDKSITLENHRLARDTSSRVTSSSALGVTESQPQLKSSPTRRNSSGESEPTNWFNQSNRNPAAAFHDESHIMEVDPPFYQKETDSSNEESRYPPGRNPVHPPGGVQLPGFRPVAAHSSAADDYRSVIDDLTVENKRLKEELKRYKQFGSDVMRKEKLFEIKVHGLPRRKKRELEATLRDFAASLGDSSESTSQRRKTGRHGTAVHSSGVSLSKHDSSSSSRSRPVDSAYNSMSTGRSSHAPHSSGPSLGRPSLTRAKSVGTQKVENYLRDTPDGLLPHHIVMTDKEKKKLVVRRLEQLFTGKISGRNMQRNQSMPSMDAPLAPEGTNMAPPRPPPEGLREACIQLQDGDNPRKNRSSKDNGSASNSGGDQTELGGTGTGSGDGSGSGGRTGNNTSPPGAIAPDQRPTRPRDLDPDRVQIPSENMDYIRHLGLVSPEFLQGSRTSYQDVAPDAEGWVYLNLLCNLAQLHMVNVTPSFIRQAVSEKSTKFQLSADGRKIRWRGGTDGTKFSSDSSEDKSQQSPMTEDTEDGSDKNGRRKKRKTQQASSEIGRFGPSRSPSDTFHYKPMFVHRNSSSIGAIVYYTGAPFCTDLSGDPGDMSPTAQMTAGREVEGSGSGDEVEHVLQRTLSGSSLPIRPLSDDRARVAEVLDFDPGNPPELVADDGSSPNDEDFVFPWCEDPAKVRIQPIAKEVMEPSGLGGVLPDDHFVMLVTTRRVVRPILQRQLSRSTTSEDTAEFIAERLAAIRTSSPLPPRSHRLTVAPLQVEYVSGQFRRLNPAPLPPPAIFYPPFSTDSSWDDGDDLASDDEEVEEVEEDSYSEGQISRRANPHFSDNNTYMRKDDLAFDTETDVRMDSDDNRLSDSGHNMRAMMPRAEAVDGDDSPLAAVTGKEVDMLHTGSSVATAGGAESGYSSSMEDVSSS
The test can be described thus: co-IP; V5H6-tagged FRQ (wild type or mutant) pulled down with V5 agarose from Neurospora lysate (cultures in the light, 25 °C); 50 mM Hepes pH 7.4, 137 mM NaCl, 10% glycerol, 0.4% NP-40; 4 °C, 2 h; Western blot with FRQ, FRH, WC-1 and WC-2 antibodies.

In test [2] the target is T2, FRQ Δ482–510, V5H6-tagged (Neurospora crassa) (UniProt P19970).
T2 sequence: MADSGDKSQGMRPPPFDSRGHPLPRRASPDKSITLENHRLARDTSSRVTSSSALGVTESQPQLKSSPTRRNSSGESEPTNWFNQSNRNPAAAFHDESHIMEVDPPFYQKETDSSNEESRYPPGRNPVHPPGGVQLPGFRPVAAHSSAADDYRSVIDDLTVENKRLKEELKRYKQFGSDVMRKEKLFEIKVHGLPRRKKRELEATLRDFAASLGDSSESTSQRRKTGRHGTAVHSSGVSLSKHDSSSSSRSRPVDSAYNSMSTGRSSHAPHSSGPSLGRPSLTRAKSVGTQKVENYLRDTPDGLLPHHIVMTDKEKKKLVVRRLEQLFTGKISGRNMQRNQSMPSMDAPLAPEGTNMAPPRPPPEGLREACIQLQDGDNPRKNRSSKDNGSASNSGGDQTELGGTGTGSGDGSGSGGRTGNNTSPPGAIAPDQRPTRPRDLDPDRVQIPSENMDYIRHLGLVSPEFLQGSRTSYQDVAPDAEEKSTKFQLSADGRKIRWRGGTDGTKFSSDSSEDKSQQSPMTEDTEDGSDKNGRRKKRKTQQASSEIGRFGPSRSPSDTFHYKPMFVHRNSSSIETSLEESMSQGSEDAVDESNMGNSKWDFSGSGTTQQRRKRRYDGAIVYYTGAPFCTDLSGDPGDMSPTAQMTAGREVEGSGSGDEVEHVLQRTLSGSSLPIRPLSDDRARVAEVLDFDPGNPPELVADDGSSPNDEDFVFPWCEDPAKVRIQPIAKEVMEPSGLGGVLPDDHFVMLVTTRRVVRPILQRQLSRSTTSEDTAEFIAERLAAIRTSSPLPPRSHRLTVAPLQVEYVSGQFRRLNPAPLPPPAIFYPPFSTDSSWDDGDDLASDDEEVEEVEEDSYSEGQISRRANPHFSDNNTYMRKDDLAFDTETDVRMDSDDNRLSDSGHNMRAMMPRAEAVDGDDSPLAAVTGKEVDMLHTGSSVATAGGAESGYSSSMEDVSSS
Described as above.

B1: White Collar-2 (WC-2) (protein, UniProt P78714 1-530)
chain: MSHGQPPPGSSMYGFGAMGMGSGMGSGMGSGMGTGMGTGMGTGMSASQMTSDPQDMMSLLDTSVFPGFDGMSMSLDVGDSMSNPFTPVSVPPPLPAGNAGPSHVGVCGGHGAPDQLFSPDDLIATSMSSAGPMIATPTTTTSGPSGGPSSGGGSTLTEFTKRRNWPAKVVEELQDWEHILDANGRIKHVSPSVEPLTGYKPPEIIDLFLRDLIHPDDVGVFTAELNEAIATGSQLRLFYRFRKKDGNWTIFETVGHAHIAAAKFAPNPQNQSPFCQAVFMMARPYPTKNAGLLDSFLEHKIENERLKRRIAELRREEQEEQEESHRTWRMSQEGRSDVTPSDDTATQMGMTPFYIPMNAQADVMMPPPSQPASSLNIALTRENLEGIAGSRPDSIREKMLRYEGNHADTIEMLTGLKYQEGERSHGITTGNASPTLIKGDAGIAIPLDRDPRTGEKKKKIKVAEEYVCTDCGTLDSPEWRKGPSGPKTLCNACGLRWAKKEKKKNANNNNNGGGIGGHNDIHTPMGDHMG
Take B1: the binding entry in test [1] is given as “binds weakly”; in test [2], “no binding”.
